Experimental data reported in US20230117205A1, “B7-H4 ANTIBODY-DRUG CONJUGATES FOR THE TREATMENT OF CANCER” (SEAGEN INC., priority 2021, published 2023).

Key:
[1] = system: WIL2S and RAJI cells transduced to express human B7-H4; test: CDC, Sytox Green, 10% human serum; assay type: cell-based
Procedure: Antibodies have the ability to recruit complement proteins triggering complement-dependent cytotoxicity (CDC).
Using complement media (RPMI containing 10% human serum (Complement Technology, Inc. #NHS)), test antibodies and controls were titrated with a 3-fold dilution ranging from 50-0.02 μg/mL and 100 μL/well of the titrations were plated over the target cells. To measure total cell death, 2% Triton X (EMD Millipore Corp. #648463-50ML) was used as a positive control. Test plate was incubated for 2 hours at 37° C. in a humidity-controlled incubator and then Sytox Green fluorescence was read on an Envision plate reader.

[2] = system: mB7-H4-expressing Renca tumors; test: RNAseq of treated mB7-H4-expressing Renca tumors; assay type: in vivo, Balb/c mice; conditions: single 3 mg/kg dose; 6-7 days
Procedure: For RNAseq, RNA was extracted from tumors and library preparation for […] sequencing was performed using PolyA selection. RNA was sequenced using the Illumina HiSeq platform 2×150 bp configuration. RNA extraction, library preparation, and sequencing were performed by GENEWIZ. Adaptors were trimmed using cutadapt version 1.16, reads were aligned to a composite (GRCh38(h38)/GRCm38(mm10)) genome using STAR version 2.5.2. Transcripts and genes were quantitated via RSEM version 1.2.31. Quantitative and statistical differences were determined between groups of samples using DESeq2 version 1.28.1. GO term and gene set enrichment analysis was performed with clusterProfiler version 3.16.1, msigdbr version 7.1.1, AnnotationDbi version 1.50.3, org.Mm.eg.db version 3.11.4, and org.Hs.eg.db version 3.11.4. […] Only GO terms with a p-value and q-value of 0.05 or less were retained. Figures were replotted using GraphPad Prism. The raw fastq files as well as the mapped BAM files are stored on the Seagen linux storage location: /fc1/jobs/research/RNASeq/. One vehicle control tumor was excluded from analysis due to degradation.
Tumors were harvested 6-7 days after treatment, cut in half, and processed for RNA-seq or IHC.

[3] = system: MDA-MB-468 xenograft model; test: MDA-MB-468 xenograft dose range, Study MDAMB468-9; assay type: in vivo, NSG mice; conditions: 3 mg/kg, three weekly doses
Procedure: Tumor volume was measured twice weekly until study day 85.
Female NSG mice were implanted with 1×10^6MDA-MB-468 cells in 25% Matrigel H C (Corning #354248) subcutaneously. Once tumor volumes reached 100 mm^3, mice were randomized into treatment groups of 5 mice each and dosed with 0.3, 1, or 3 mg/kg every seven days for three total doses (q7dx3). Twenty-four hours prior to receiving each ADC dose, each animal was treated with 10 mg/kg hIVIG (Grifolds). Tumor volumes were measured twice per week, animals were euthanized when tumor volume reached 700-1000 mm^3. Stock concentrations of ADC were diluted to desired concentration (with 0.01% Tween20 in PBS) and injected i.p. into each treatment group.

SKBR3 = test: ADCP with primary monocytes/macrophages; assay type: cell-based, human; conditions: 2 independent donors
Procedure: The B7-H4-expressing cell line SKBR3 and primary monocytes/macrophages were used to evaluate SGN-B7H4V-mediated ADCP. […] Phagocytosis of opsonized cells was assessed by flow cytometry.
SKBR3 tumor cells were fluorescently labeled with PKH26 (PKH26 Red Fluorescent Cell Membrane Labeling Kit, Sigma-Aldrich #PKH26GL-1KT), according to manufacturer instructions: SKBR3 cells were harvested with Versene (Gibco #15040-066) for 10 minutes and washed once with PBS. Cell were resuspended in 1 mL Diluent C (included in the PKH26 Red Fluorescent Cell Membrane Labeling Kit, Sigma-Aldrich #PKH26GL-1KT). In a separate tube, 1 mL Diluent C was mixed with 4 μL PKH26 dye by pipetting up and down. The dye solution was transferred to resuspended cells, quickly mixed by pipetting up and down several times, and incubated at room temperature for 5 minutes. Labeling reaction was stopped by adding 2 mL FBS (0.05-0.2 EU/ml Endotoxin, R&D Systems #S11550H). Cells were then washed once with RPMI 1640 (Gibco #11875-093) containing 10% FBS. Cells were resuspended in PBS at concentration of 0.8×10^6 cells/mL and transferred (300 μL/well) to a 96-well U-bottom plate (Falcon #353227). […] Phagocytosis is reported as the PKH26 geometric mean fluorescence intensity (gMFI) of gated CD14+/CD45+ cells analyzed using Flowjo. […]

B1: B7H41001 mAb (antibody)
heavy: QLQLQESGPGLVKPSETLSLTCTVSGGSIKSGSYYWGWIRQPPGKGLEWIGNIYYSGSTYYNPSLRSRVTISVDTSKNQFSLKLSSVTAADTAVYYCAREGSYPNQFDPWGQGTLVTVSS[human IgG1 constant region not listed]
light: EIVMTQSPATLSVSPGERATLSCRASQSVSSNLAWYQQKPGQAPRLLIYGASTRATGIPARFSGSGSGTEFTLTISSLQSEDFAVYYCQQYHSFPFTFGGGTKVEIKRTVAAPSVFIFPPSDEQLKSGTASVVCLLNNFYPREAKVQWKVDNALQSGNSQESVTEQDSKDSTYSLSSTLTLSKADYEKHKVYACEVTHQGLSSPVTKSFNRGEC
modifications: non-natural residues; cyclised or stapled
lysis (CDC) [1]: did not induce lysis
Vtcn1 (encodes B7-H4) transcripts [2]: not
anti-tumor activity (tumor volume) [3]: minimal anti-tumor activity
ADCP activity (SKBR3): ADCP activity above that seen with the positive control
